Data from PubChem BioAssay (NCI).
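Each compound was tested at five concentrations against cells in 96-well plates for 48 hours. GI50 = concentration required for 50% inhibition of growth. Definition used: TGI = concentration required for complete inhibition of growth.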

System: NCI-H322M lung
Test: inhibition of tumour cell growth, NCI panel, 48 h

## NC(=O)c1cc(-c2ccc3ncnc(N4CCc5cc(F)c(Cl)cc54)c3c2)cnc1N
  GI50: 1.02 µM
  TGI: 8.69 µM

## Oc1ccc(CSc2nnc(-c3ccc(Oc4ccccc4)cc3)n2-c2ccccc2)c2cccnc12
  GI50: 0.318 µM
  TGI: > 100 µM

## CN(C)CCCNc1c2ccccc2nc2c1oc1ccc(Cl)cc12
  GI50: 3.18 µM
  TGI: 14.9 µM
